Measurements reported in the supplement of paper PMC11417369.
The list shows a part of the results.

System: PfAP2-HC AP2 domain (GST-tagged)
Test: gcPBM binding intensity (ln(normalized median fluorescence intensity)); higher = stronger DNA binding
Outline: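 An Agilent 4 × 180k array carrying primer-extended double-stranded 36-bp intergenic genomic probes and negative controls received GST-tagged P. falciparum DNA-binding domains expressed in E. coli, about 25 μg on average, for 1 h. The binding buffer contained 1× PBS, 1% milk, 0.2 mg/ml BSA, 0.5% salmon testes DNA and 0.03% Triton X-100. Binding intensity is the top Masliner-normalised natural-log median intensity across replicate spots of either probe orientation, read after Alexa488 anti-GST antibody staining and a 488 nm scan.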

Sequence	gcPBM binding intensity (ln)
TAAATAATTTATAAGTGTACTATTATTGCACGAATA [XGTACX_site7715]	9.46
AAAAAAAACAGACACACACACATAAATATATATAAA [CACACA_site148]	10.4
ATGATTTTTTCTGTATGTACATAAAAATAAAATTCT [XGTACX_site5698]	9.44
CATTAGGTCTTTTGTACATGCAAGTGTGTGCGTAAA [TGCATGCA_site255]	9.93
TTTTTTTTTTTTTTTGCACACTTGATTTGAGCTTAT [CACACA_site4042]	9.56
AAAATAAAAATACACATTTTTTTTTTTTTTTTTTTT [TGCATGCA_negctrl_site515]	9.54
TTTTTTTTTGTTTACACACCCAAATCACATACATAT [CACACA_site4052]	9.94
TTACAAAAATGTGGTTGTACACAAACAAAAAAAATA [XGTACX_site8506]	9.82
GAAAATAGCTAAAATACACACAATTAAAAGTTATTA [CACACA_site7614]	10.2
TATAAATAGATATATACACACATGAAAATAAATAAA [CACACA_site7228]	10.1
TTTTCCTTTTTGGAATGTACACATATATATTAAATG [XGTACX_site4700]	9.51
AAATATAATATATGCACACATACATACATATATATA [CACACA_site104]	9.84
AAGAATAATAACAAATGTACTTATATAAAGTATTAT [XGTACX_site2336]	9.74
TAATTAAATATTTTCCTACAATTAATAAGAAAAGGA [XGTACX_negctrl_site565]	9.27
TATTAAGAAGAAAATTCACACATTTGTACCTCTCTT [CACACA_site4822]	9.68
CAGCTCTTAAAAATTACACACATATACGCATATATA [CACACA_site3267]	9.83
TTCTTTAAAATAAATTGTACTAACATATATATATAT [XGTACX_site6045]	9.66
TATAATATAATATATGCACACAAATATGTATATATG [CACACA_site8664]	9.78
AACTATATATAACTAGTGCAAAGACAATATTTTAAA	9.79

Sequence	gcPBM binding intensity (ln)
AAAATTTAATATAATGCACACATAAAAAAAAAAAAT [CACACA_site8425]	9.89
CCATTTATTATTTGGGGTACATTTAATTAATATTTT [XGTACX_site5940]	9.72
CTTTATTATAAGATTACACACATGTGTTATAATTTA [CACACA_site3169]	9.79
TTGACCTTAAGAAGGTTGCACTAATCATTCAAAGTT	9.45
ATAGGCACTTTTTGCACACGTATGAATAACAAAATA [CACACA_site5069]	10
TGAAAATTTTAATGAGGAAATAAAATAAATATAATA [GTGCAC_negctrl_site159]	9.58
TTTATTAATAGACACACACACACACGCAAAATAAAA [CACACA_site6255]	11.2
CCAAAGGGGGTATACTGTACATATAGTGGTTATATA [XGTACX_site1515]	9.73
ATTTAAGGGGTGTATGCACACGACTATTCCGTATGA [CACACA_site4738]	9.94
AATATTTTAAGGCACACACACAAAAAAAAAAAAAAA [CACACA_site2890]	10.7
TAATTTAGTATCTTTACATGCGGGCATTATGTCATA [TGCATGCA_site167]	9.57
ACTTGTTTTCAATGTAAAATACAATTTTCATTTATT [CACACA_negctrl_site435]	9.7
AATGAAAAATGTATCGTTAAAGGGTATCTTAAGGAT [XGTACX_negctrl_site222]	9.7
CCAAAGAAATATAATACACACAAGAATATATTGGAT [CACACA_site6018]	9.86
AAGTATTACAACCACACACACACCTATATATTATAT [CACACA_site4158]	10.6
AATTTAATATAATGCACACATAAAAAAAAAAAAAAA [CACACA_site123]	9.74
TTTTAAACAAAAAATTGTACAATTAGTGTATAATCC [XGTACX_site778]	9.69
AAAGGAAATTAAAATTGATTACATATATAAAAAAAC [XGTACX_negctrl_site196]	9.72
TATAAAAATGTGTATGTACACACTTTATTTTTAATA [CACACA_site2532]	9.68

Sequence	gcPBM binding intensity (ln)
TATTTTTCCCTATGCACACACACCGTATATATAATA [CACACA_site4758]	10.4
AGTATTTCCATATGTACATGCAAAAGGAAAGATATA [TGCATGCA_site850]	9.7
AAATATAAAAATAGCACACATATATACATATATATA [CACACA_site56]	9.88
TGTCCAATTTTTTATCGTACATAATATATAAATAAA [XGTACX_site1705]	9.36
AGAAACGTAAGTTATACACACATGTCAAAAGAAAAA [CACACA_site312]	9.91
AAATTAAAATATATATGTACATATATATATATATAT [XGTACX_site7844]	9.62
GAGCTTTGGATGAAAGCATGCGATGAATGGATAAAA [TGCATGCA_site786]	9.47
AACACAAATAAGTATTTGGATTATATTACATTTATA [CACACA_negctrl_site465]	9.57
TAAATAGGAAAACCTATACACACTTTAAAAAAAATA [CACACA_site1621]	9.63
TAAATTAAAAAAAAAAACAAAAAAAAAGCAACAAAA [CACACA_negctrl_site1318]	9.67
ATAAAAATAAATAAATGTACATATATATATATATAT [XGTACX_site1277]	9.58
ATTTATTTCAATAAACTTCTTTTCTTTAACAATTAC [CACACA_negctrl_site1222]	9.51
CTGTAAAATGTGATGGTGCATATTAATTTAGTTGTA	9.87
TTTGAATTTTTTAACACACACATGTCTGGATATATA [CACACA_site1645]	10.1
GAAAAAAAAAAAAAAAGTACATGTCATAAATTGTAT [XGTACX_site1461]	9.82
TTTTCCTTAACACACGTTTATATAAAAAATTAAAAT [XGTACX_negctrl_site115]	9.37
ATCCATCTTTTATATAGTACTTTATAATATATATAT [XGTACX_site8064]	9.82
CAATGTTAATATAATACACACAATATGTATTTGTCT [CACACA_site1162]	9.91
TTGTTAATATATATATGTACTTATTTATTTATTTAT [XGTACX_site2274]	9.65
